# Measurements from PubChem BioAssay AID887 (National Center for Advancing Translational Sciences (NCATS), 2007).
# About 1,100 (1.5%) of roughly 74,000 compounds were called active. This list was built around the results that the source calls inconclusive (neither active nor inactive); the mix of calls is not that of the screen. Calls come from the whole dose curve; as a rule, active = well fitted inhibition curve with a large enough effect; inconclusive = small, poorly fitted or top-dose-only effect; inactive = no such curve, though single readings can be large or run the other way. Potencies of inconclusive entries are left out as doubtful fits.
# Target: Polyunsaturated fatty acid lipoxygenase ALOX15 (Homo sapiens) (UniProt P16050)
# Test: qHTS Assay for Inhibitors of 15-hLO (15-human lipoxygenase); note: nearly all actives have a fitted effect of over 55% in size
# Details: purified 15hLO-1, xylenol orange hydroperoxide absorbance; activity change, negative = inhibition: at 57.1 µM (top of the series) unless noted
# Outline: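 40 nM 15hLO-1 + cpd, 15 min RT; start w/ 50 uM AA (final), 6 min RT; stop/detect w/ 200 uM XO + 300 uM Fe(II) in 50 mM H2SO4, 30 min; A573/A405. Buffer 25 mM Hepes pH 7.5, 0.01% Triton X-100. No-enzyme wells as negative control.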
# % is set by controls: 0 for no effect and ±100 for the full control effect; potency is the fitted concentration of half-maximal effect; tags give direction and shape of the fitted curve.
# Sequence of UniProt P16050 (P16050 whole entry, looked up): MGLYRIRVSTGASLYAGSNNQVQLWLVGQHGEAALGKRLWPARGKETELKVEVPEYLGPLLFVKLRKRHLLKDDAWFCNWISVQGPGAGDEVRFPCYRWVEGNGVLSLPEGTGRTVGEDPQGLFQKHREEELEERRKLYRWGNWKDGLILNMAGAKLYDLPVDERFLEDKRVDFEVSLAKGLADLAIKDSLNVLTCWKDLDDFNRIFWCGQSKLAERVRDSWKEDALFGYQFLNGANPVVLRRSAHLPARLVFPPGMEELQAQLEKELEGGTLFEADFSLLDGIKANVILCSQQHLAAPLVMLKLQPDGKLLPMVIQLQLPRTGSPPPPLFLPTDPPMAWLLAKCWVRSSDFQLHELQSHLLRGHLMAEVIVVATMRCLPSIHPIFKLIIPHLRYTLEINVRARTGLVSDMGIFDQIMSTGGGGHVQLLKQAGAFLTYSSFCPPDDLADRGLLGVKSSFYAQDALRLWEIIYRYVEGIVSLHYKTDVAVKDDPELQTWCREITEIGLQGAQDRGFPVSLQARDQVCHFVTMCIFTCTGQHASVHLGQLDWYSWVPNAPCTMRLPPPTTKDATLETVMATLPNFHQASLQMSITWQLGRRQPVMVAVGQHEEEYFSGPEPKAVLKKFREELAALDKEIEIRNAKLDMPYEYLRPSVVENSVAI
Structure (SMILES),Potency,"activity change, negative = inhibition"
CC(C)C(=O)Nc1ccc(NC(=O)c2cccs2)cn1,"inconclusive [inhibitor, single point]",–
COc1cc(CN2CCC(C(=O)N3CCC(C)CC3)CC2)cc(Br)c1O,"inconclusive [inhibitor, single point]",–
Cc1ccc2c(c1)NC(=O)C(CC(=O)NCCCN1CCN(c3cc(C)ccc3C)CC1)O2 (configuration not stated),"inconclusive [inhibitor, partial curve]",–
CC[C@H](c1ccc(O)cc1)[C@@H](CC)c1ccc(O)cc1,"inconclusive [inhibitor, partial curve]",–
O=c1c(-c2ccccc2)nc2cnc(N3CCOCC3)nc2n1Cc1cccs1,"inconclusive [inhibitor, partial curve]",–
C1CCC(c2nn3c(-c4n[nH]c5c4CCC5)nnc3s2)CC1,–,inactive: 6.21%
O=c1c(O)cc(C2Oc3cc(O)cc(O)c3CC2O)cc2c(C3Oc4cc(O)cc(O)c4CC3O)cc(O)c(O)c12 (configuration not stated),"inconclusive [inhibitor, partial curve]",–
Cc1oc2c(O)c(O)ccc2c(=O)c1-c1cnn(-c2ccccc2)c1,"inconclusive [inhibitor, partial curve]",–
O=C(O)CSc1nnc(C2CC2)n1-c1ccccc1,"inconclusive [inhibitor, single point]",–
O=C(CSc1nc2c([nH]c3ccccc32)c(=O)n1-c1cccc(Cl)c1)N1CCOCC1,"inconclusive [inhibitor, partial curve]",–
O=C1NC(c2cccs2)Nc2sc3c(c21)CCCC3 (configuration not stated),active: 25.1 µM,–
Cn1c(=O)c2c(nc(CN3CCN(Cc4ccccc4)CC3)n2Cc2ccccc2)n(C)c1=O,active: 20 µM,–
CC1CCCCC1NC(=O)COc1ccc(-n2cnnn2)cc1 (configuration not stated),"inconclusive [inhibitor, full curve]",–
Cc1ccc(C(=O)Cn2c3c(sc2=N)CCCC3)cc1,"inconclusive [inhibitor, single point]",–
N[C@]1(C(=O)O)CCc2cc(P(=O)(O)O)ccc21,"inconclusive [inhibitor, single point]",–
COc1cc(-c2nnc(SCc3c(F)cccc3Cl)o2)cc(OC)c1OC,–,inactive: -12.5%
COc1cccc(-c2cncnc2NCCc2c[nH]c3ccc(OC)cc23)c1,"inconclusive [inhibitor, partial curve]",–
N#C/C(=C\c1ccc[nH]1)Sc1nc2ccccc2s1,active: 15.8 µM,–
O=C(c1cccnc1)N1CCN(CCCc2ccccc2)CC1,"inconclusive [inhibitor, single point]",–
CCOC(=O)CCc1c(C)c2ccc(O)cc2oc1=O,–,inactive: -3.41%
c1ccc2c(c1)nnn2Cc1nnc2sc(-c3ccncc3)nn12,"inconclusive [inhibitor, single point]",–
CC(C)OC(=O)c1cn(-c2ccccc2)nc1-c1ccco1,active: 20 µM,–
O=c1cc(O)sc2ccccc12,"inconclusive [inhibitor, single point]",–
c1ccc(Nc2nc(-c3ccc4c(c3)OCO4)nc3ccccc23)cc1,"inconclusive [inhibitor, single point]",–

Structure (SMILES),Potency,"activity change, negative = inhibition"
N#CC1=C(N)OC2=C(C(=O)CCC2)C12CCN(C(=O)OCc1ccccc1)CC2,active: 25.1 µM,–
COc1cc(-c2cc(C(=O)O)c3c(OC)c(OC)c(OC)cc3n2)ccc1O,"inconclusive [inhibitor, single point]",–
CN(C(=O)c1ccccc1C(=O)O)C1CC(C)(C)NC(C)(C)C1,"inconclusive [inhibitor, partial curve]",–
Cc1cc(C)c2[nH]c(=O)c(C(c3nnnn3Cc3ccc4c(c3)OCO4)N3CCCC3)cc2c1 (configuration not stated),"inconclusive [inhibitor, full curve]",–
O=c1c(-c2cc(F)cc(F)c2)nc2cnc(N3CCOCC3)nc2n1C1CC1,"inconclusive [inhibitor, partial curve]",–
COc1ccc(O[C@H]2C=C[C@@H](c3ccccc3)O[C@H]2CO/N=C(/C)CCC(=O)OC[C@@H]2O[C@H](c3ccccc3)C=C[C@@H]2Oc2ccc(OC)cc2)cc1,–,inactive: 0.647% [at 11.4 µM]
COC(=O)C1=C(C)NC(=O)C1(Nc1ccc(Cl)cn1)C(F)(F)F (configuration not stated),"inconclusive [inhibitor, single point]",–
S=C(c1ccc(-c2cc(Cl)ccc2Cl)o1)N1CCOCC1,"inconclusive [inhibitor, partial curve]",–
O=C(O)C[C@H]1OCC=C2C[N@@+]3([O-])CC[C@]45c6ccccc6N[C@@H]4[C@@H]1[C@H]2C[C@H]53,–,inactive: 1.19% [at 11.4 µM]
COc1cccc(O)c1O,active: 0.794 µM,–
COc1ccccc1CNc1nc(-c2ccc(N(C)C)cc2)nc2ccccc12,active: 20 µM,–
c1cncc(CNc2ccnc(-c3ccc4c(c3)OCO4)n2)c1,"inconclusive [inhibitor, single point]",–
COc1cccc(-c2csc(NC(C)=O)n2)c1,–,inactive: -19.1%
CCc1cc(C(=O)c2ccccc2OC)c(N)s1,"inconclusive [inhibitor, single point]",–
Cc1cc(C(=O)Nc2c(C)n(C)n(-c3ccccc3)c2=O)cs1,active: 1.58 µM,–
CCC(Sc1nc2n[nH]c(C)c2c(=N)n1-c1cccc(Cl)c1)C(=O)NCCOC (configuration not stated),–,inactive: -7.48%
Cc1nc2c(c(=O)n1Cc1ccccc1Cl)c1nc3ccccc3nc1n2Cc1ccco1,"inconclusive [inhibitor, partial curve]",–
N#CC1=C2SCN(Cc3ccccc3)CN2C(=O)CC1c1cccs1 (configuration not stated),"inconclusive [inhibitor, partial curve]",–
N#CC1=C(N)N(c2ccc(Oc3ccccc3)cc2)C(=O)C1,"inconclusive [inhibitor, single point]",–
Brc1cc(Br)c2ncnc(N3CCCCC3)c2c1,"inconclusive [inhibitor, single point]",–
NC(=O)c1cc[n+](CC2=C(C(=O)O)N3C(=O)C(NC(=O)C(c4ccccc4)S(=O)(=O)[O-])C3SC2)cc1 (configuration not stated),–,inactive: -3.2%
COP(=O)(OC)OC(c1ccc(Cl)cc1)P(=O)(OC)OC (configuration not stated),"inconclusive [inhibitor, single point]",–
COc1ccc(Nc2cc(C)nc3nc(C)nn23)cc1Cl,–,inactive: 36.7%
N=c1c(C(=O)NCc2ccccc2)cc2c(=O)n3ccccc3nc2n1CCCN1CCOCC1,"inconclusive [inhibitor, full curve, poor fit]",–

Structure (SMILES),Potency,"activity change, negative = inhibition"
CCOc1ccccc1N1C(=O)CC(Nc2ccc(N3CCOCC3)cc2)C1=O (configuration not stated),"inconclusive [inhibitor, single point]",–
O=C(NC1CCCCC1)C(c1cccs1)N(Cc1cccs1)C(=O)c1ccco1 (configuration not stated),–,inactive: -4.9%
COCCNC(=O)C(c1ccc(C)o1)N(C(=O)c1snc(C(N)=O)c1N)c1cc(C)cc(C)c1 (configuration not stated),–,inactive: -1.89%
O=C(CSc1nnnn1C1CCCC1)Nc1ccc2c(c1)OCO2,–,inactive: 1.16%
Cn1c(-c2ccc(Br)o2)nc2cc(Br)ccc21,"inconclusive [inhibitor, single point]",–
CN1CCc2nc(SCCOc3ccccc3)c(C#N)cc2C1,active: 3.16 µM,–
Cn1cnc2cc(NC(=O)c3ccc(Cl)cc3)ccc21,–,inactive: 7.64%
CCOc1cc(C2C(C(=O)c3ccccc3)=C(C(=O)OC)Nc3nnnn32)ccc1O (configuration not stated),"inconclusive [inhibitor, partial curve]",–
CC1=C(C(=O)OCC2CCCO2)C(c2ccccc2OC(C)C)C2=C(CC(c3ccco3)CC2=O)N1 (configuration not stated),active: 31.6 µM,–
CCCN(CCC)c1nc2ccccc2n2c(C)nnc12,"inconclusive [inhibitor, single point]",–
COc1ccc(CNc2ccc3cn[nH]c3c2)c(OC)c1OC,–,inactive: 9.8%
N#C/C(=C1\CCCN1)c1ccc2ccccc2n1,–,inactive: -23.8%
Cn1c(=O)[nH]c(=O)c2c1nc(N(CCO)Cc1ccccc1)n2CCCc1ccccc1,–,inactive: -5.9%
COc1ccc(S(=O)(=O)Nc2c(C)ccc3nsnc23)cc1OC,"inconclusive [inhibitor, partial curve]",–
O=C(Nc1cccc(F)c1)N1CC[C@@]2(CCCN(C(=O)c3cnccn3)C2)C1,–,inactive: 1.22%
Cc1oc(C)c2c(=O)ccc3c(c12)OC(N)=C(C#N)C3c1ccc(F)cc1 (configuration not stated),"inconclusive [inhibitor, partial curve]",–
Nc1nonc1-n1nnc(C(=O)c2ccccc2)c1-c1ccccc1,"inconclusive [inhibitor, partial curve]",–
COC(=O)c1ccc(CC(=O)c2c(C)cc(O)cc2O)o1,active: 25.1 µM,–
COc1cccc(Cn2c(=O)c(-c3cccc(Cl)c3)nc3cncnc32)c1,"inconclusive [inhibitor, single point]",–
Cc1ccc(Cn2c(=S)[nH]c3ccc(N4CCOCC4)cc3c2=O)o1,active: 15.8 µM,–
COc1ccc2c(c1)CCc1c(C(=O)N3CCc4ccccc4C3)noc1-2,"inconclusive [inhibitor, partial curve]",–
FC(F)C(F)(F)C(F)(F)C(F)(F)c1cc(-c2ccccc2)n[nH]1,"inconclusive [inhibitor, partial curve]",–
O=C(CN1C(=O)CCC1=O)Nc1nc(-c2ccc(Cl)s2)cs1,–,inactive: -7.14%
CC1CC(C)CN(C(=O)CSCC(=O)Nc2nc(-c3cccs3)cs2)C1 (configuration not stated),"inconclusive [inhibitor, partial curve]",–
